# Laboratory results: publication PMC4336329 (PLoS ONE, 2015)
# About 2,200 (0.71%) of roughly 310,000 compounds showed an effect of 50% or more. The effect is printed as a negative number. This is one part of the list.
# Target: human ether-à-go-go-related gene (hERG) potassium channel (human, UniProt Q12809)
# Assay: primary screen, population patch clamp on CHO cells stably expressing hERG
# human ether-à-go-go-related gene (hERG) potassium channel, sequence (Q12809 whole entry, looked up): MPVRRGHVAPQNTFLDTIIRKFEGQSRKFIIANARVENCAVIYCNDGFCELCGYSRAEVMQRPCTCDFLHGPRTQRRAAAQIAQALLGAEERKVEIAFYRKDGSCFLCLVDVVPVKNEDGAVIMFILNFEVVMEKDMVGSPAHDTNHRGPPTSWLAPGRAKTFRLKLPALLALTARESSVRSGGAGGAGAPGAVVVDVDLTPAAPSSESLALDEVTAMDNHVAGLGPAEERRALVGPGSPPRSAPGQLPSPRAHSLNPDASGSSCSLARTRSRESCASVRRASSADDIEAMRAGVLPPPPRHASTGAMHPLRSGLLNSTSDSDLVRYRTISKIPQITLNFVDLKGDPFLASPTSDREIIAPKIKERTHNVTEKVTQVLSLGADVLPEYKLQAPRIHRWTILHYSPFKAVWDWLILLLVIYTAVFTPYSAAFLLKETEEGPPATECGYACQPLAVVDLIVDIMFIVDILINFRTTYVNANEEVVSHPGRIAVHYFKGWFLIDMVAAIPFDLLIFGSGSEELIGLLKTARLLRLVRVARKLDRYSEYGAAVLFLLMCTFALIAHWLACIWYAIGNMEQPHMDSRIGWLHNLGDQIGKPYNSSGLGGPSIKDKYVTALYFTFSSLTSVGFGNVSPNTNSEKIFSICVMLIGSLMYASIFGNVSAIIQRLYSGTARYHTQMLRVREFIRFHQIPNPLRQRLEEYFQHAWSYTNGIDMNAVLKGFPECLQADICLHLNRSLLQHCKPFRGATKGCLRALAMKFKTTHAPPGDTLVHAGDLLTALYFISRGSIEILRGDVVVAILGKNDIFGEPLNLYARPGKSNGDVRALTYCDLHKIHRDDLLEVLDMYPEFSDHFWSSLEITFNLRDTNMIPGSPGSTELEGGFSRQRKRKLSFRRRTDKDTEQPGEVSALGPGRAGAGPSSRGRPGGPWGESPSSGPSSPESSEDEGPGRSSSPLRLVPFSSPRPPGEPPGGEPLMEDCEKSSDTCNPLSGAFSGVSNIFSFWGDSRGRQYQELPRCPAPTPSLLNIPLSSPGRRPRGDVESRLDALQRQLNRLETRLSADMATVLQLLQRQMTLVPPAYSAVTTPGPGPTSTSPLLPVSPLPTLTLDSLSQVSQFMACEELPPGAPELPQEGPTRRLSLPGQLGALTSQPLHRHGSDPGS
row,SMILES,"hERG current change (%, negative = inhibition) at 1uM [%]"
1,O=C(Nc1nnc(-c2cccs2)s1)c1cccc(F)c1,13.9
2,O=C(NC1CCCCC1)C(c1ccc2ncccc2c1)N(Cc1ccc2c(c1)OCO2)C(=O)c1ccc2c(c1)OCCO2 (stereo not drawn),6.05
3,NC(=O)NC(=O)C(c1ccccc1)N1CCN(S(=O)(=O)c2ccc(Br)s2)CC1 (stereo not drawn),4.82
4,CCOc1ccc(N(CC(=O)Nc2ccccc2Cl)S(C)(=O)=O)cc1,8.85
5,CCn1c(CNc2ccc(F)cc2)nnc1SCC(=O)N1CCCc2ccccc21,-12.3
6,O=C(/C=C/c1cccnc1)c1ccc(O)cc1,1.87
7,COC(=O)COc1ccc2cc(-c3ccccc3)c(=O)oc2c1,12
8,Cn1c(N2CCOCC2)c(C#N)c2ccccc21,13.6
9,CSCCC(NS(=O)(=O)c1ccc(Cl)cc1)C(=O)OCC(=O)N(C(C)C)C(C)C (stereo not drawn),4.87
10,CN(c1ccc(OCC(=O)Nc2ccc3[nH]c(=O)[nH]c3c2)cc1)S(=O)(=O)c1ccc(Cl)cc1,4.92
11,O=C(c1ccc(F)cc1Cl)N1CCN(S(=O)(=O)c2cccs2)CC1,6.46
12,Cc1coc2cc3oc(=O)c(CCC(=O)NCC(=O)O)c(C)c3cc12,11.6
13,Cc1cccc(N(Cc2cc3ccccc3[nH]c2=O)S(C)(=O)=O)c1,5.48
14,C=C(C)Cn1c(N2CCC(Cc3ccccc3)CC2)nc2c1c(=O)[nH]c(=O)n2C,3.87
15,CCOc1ccc(S(=O)(=O)N2CCCCC2)cc1NC(=O)CC1OC(=O)c2ccccc21 (stereo not drawn),-3.94
16,O=C(Cc1ccc(NS(=O)(=O)c2cccc(C(F)(F)F)c2)cc1)NCCN1CCOCC1,5.88
17,CCCCN1CC[C@H]2C=CC[C@@H](C(=O)Nc3nccs3)[C@H]2C1=O,16.1
18,COc1ccc(N2CC(C(=O)OCC(=O)c3cccc(OC)c3)CC2=O)cc1 (stereo not drawn),9.44
19,CC1(C)CC(N2CCN(c3ccccc3)CC2)=CC(=[N+]2CCCC2)C1.[I-],5.76
20,CCn1c(=O)c(C(=O)NCc2ccc(OC)cc2)c(O)c2ccccc21,4.61
21,CCCC(=O)Oc1ccc(N(C(=O)CCC)S(=O)(=O)c2cccc([N+](=O)[O-])c2)cc1,6.26
22,Cl.O=C(CNCc1cccs1)Nc1ccc(OC(F)(F)F)cc1,3.26
23,COc1ccc(OC)c(NC(=O)c2cc3sccc3n2C)c1,6.78

row,SMILES,"hERG current change (%, negative = inhibition) at 1uM [%]"
1,CC(C)(C)NC(=O)Cn1cnc([N+](=O)[O-])n1,-1.83
2,CCNC(=O)/C(C#N)=C/c1c(N2CCN(c3ccccc3)CC2)nc2c(C)cccn2c1=O,-0.0597
3,Cc1ccccc1NCC(=O)N/N=C/c1ccc([N+](=O)[O-])cc1,6.35
4,Cc1ccc2c(CN3CCN(S(=O)(=O)/C=C/c4ccccc4)CC3)cc(=O)oc2c1,-8.17
5,O=C(Nc1ccccc1C(=O)Nc1ccccc1)c1ccccc1F,16.5
6,O=C(CCN1CCOCC1)N/N=C/c1cc(Br)cc(Br)c1O,10.4
7,c1ccc2c(c1)ccc1nnc(-c3ccc4c(c3)OCO4)n12,13.4
8,CC(=O)N1CN2CN(C(C)=O)CC(C(=O)c3ccc(Br)cc3)(C2)C1,4.24
9,CC(C)(C)c1nc(CN2CCOCC2)ccc1O.Cl,-4.54
10,O=C(Nc1ccc2ccccc2c1)c1ccc(Cl)cc1,13.2
11,COc1ccccc1CC(=O)NNS(=O)(=O)c1ccc([N+](=O)[O-])cc1,7.35
12,O=C(CCc1ccccc1)Nc1ccccc1C(=O)NCc1ccco1,12.1
13,Cc1ccc(C(=O)NNC(=O)CSc2nnc(C(C)C)n2C)cc1,19.1
14,O=C(COC(=O)c1cccs1)NCCCc1ccccc1,7.39
15,COCCC(=O)N1CCC(Oc2ccc(C(=O)N(C)CCCC3CCCC3)cc2)CC1,-1.26
16,CC(=Nc1ccc(C)c(C)c1)C1=C(O)CSC1=O,13.8
17,CC(C)C12CN3CC(C(C)C)(CN(C1)C3c1ccccc1O)C2=O (stereo not drawn),14.2
18,O=C(CN1C2=NCCCN2c2ccccc21)c1cccs1,2.43
19,O=C(NCC1CCCCC1)c1cccnc1Cl,17.4
20,O=C(COC(=O)CCc1c[nH]c2ccccc12)NCc1ccccc1,9.38
21,COc1cc(-c2cc(C(=O)O)c3cc4c(cc3n2)OCCO4)cc(OC)c1OC,-14.3
22,O=C(Nc1ccc2c(c1)OCO2)c1ccccc1SCC(=O)N1CCCC1,11
23,CN(C)CCCNc1cn[nH]c(=O)c1Cl,-4.64

row,SMILES,"hERG current change (%, negative = inhibition) at 1uM [%]"
1,COc1ccc(CNc2oc(-c3ccccc3)nc2C#N)cc1,-2.27
2,CCN(C(=O)COC(=O)c1oc2ccccc2c1C)c1c(N)n(Cc2ccccc2)c(=O)[nH]c1=O,10.6
3,COc1cccc(C(=O)N2CCN(S(C)(=O)=O)CC2)c1,13.4
4,CCCc1n(CC(O)COCc2ccccc2)c2ccccc2[n+]1C.[I-] (stereo not drawn),5.44
5,Oc1[nH]c2ccc(Br)cc2c1N=Nc1ccc(C(F)(F)F)cn1,7.86
6,O=C(Cn1cc[n+](CC(=O)c2ccc(Cl)cc2Cl)c1)c1ccc(Cl)cc1Cl.[Br-],-27.8
7,COc1ccccc1N=CC1=C(O)CC(c2ccccc2)CC1=O (stereo not drawn),4.29
8,Cc1cc(NC(=O)c2ccccc2[N+](=O)[O-])ccc1Br,3.42
9,O=C(CN1CCN(c2ccccn2)CC1)Nc1ccc(OC(F)(F)F)cc1,-9.61
10,CCOC(=O)C(NC(=O)c1ccccc1)(Nc1cccc(C)n1)C(F)(F)F (stereo not drawn),15.7
11,CCCc1cc(=O)[nH]c2nnc(SCC(=O)Nc3nnc(SCC)s3)n12,19.7
12,O=C(O)c1cc(Cl)nc2ccccc12,7.94
13,O=C(CSc1nnc(-c2ccco2)o1)NC1CC2CCC1C2 (stereo not drawn),9.76
14,CCOC(=O)C1CCCN(C(=O)c2ccc3nc(-c4cccc(OC)c4)oc3c2)C1 (stereo not drawn),2.93
15,CCOC(=O)CSc1nnc(CNC(=O)c2ccco2)n1-c1ccc(F)cc1,3.36
16,Cc1cccc(C)c1NC(=O)CN(C1CCCCC1)S(C)(=O)=O,9.1
17,Cc1ccc(C(=O)O)cc1NC(=S)NC(=O)c1ccc(COc2ccccc2)cc1,9.45
18,O=C(Nc1ccncc1)c1ccc2ccccc2c1,7.22
19,N#CN=C1CCCCCN1CC(N)=O,0.377
20,COc1ccccc1C(=O)Nc1cccc(S(=O)(=O)N2CCCC2)c1,12.3
21,CCOc1ccc(-c2nnn(CC(=O)NCc3cccs3)n2)cc1,11.3
22,CC(C)(C)c1ccc(C(=O)OCC(=O)N2CCC(c3ccccc3)=N2)cc1,3.62
23,O=C(c1ccccc1)c1n[nH]c(-c2ccccc2)cc1=O,14.9

row,SMILES,"hERG current change (%, negative = inhibition) at 1uM [%]"
1,COC(=O)CSc1nnc(NC(=O)C2CC(=O)N(c3ccc(F)cc3)C2)s1 (stereo not drawn),10.2
2,C/C(=N\NC(=O)NC1CCCCC1)C1CCCCC1,17.6
3,COc1ccc(/C=N/NC2=NCCCCC2)cc1,-1.05
4,CCOC(=O)C1CCCN(S(=O)(=O)c2ccc(Cl)nc2)C1 (stereo not drawn),5.12
5,COc1ccc(C(=O)NCC(=O)NC2=NCCS2)cc1,11.3
6,CC(C)(C)C(=O)Nc1nc2c(s1)COc1ccccc1-2,-2.68
7,O=C(CN(C(=O)c1csnn1)c1cccc2ccccc12)NCc1ccccc1,15.9
8,CCSc1ncc(/C=N/Nc2ccc(Cl)cc2)n1C,3.53
9,COc1ccccc1CCNC(=O)C(=O)NCC1OCCN1S(=O)(=O)c1cccs1 (stereo not drawn),12.1
10,CC(C)(C)NC(=O)C(c1ccncc1)N(CC1CCCO1)C(=O)Cn1nnc(-c2ccc(F)cc2)n1 (stereo not drawn),4.76
11,Cl.Nc1scc(-c2ccncc2)c1Cl,11.5
12,O=C(Cn1cnc2c(nnn2Cc2ccccc2)c1=O)N1CCCc2ccccc21,5.58
13,O=C(Cn1cnc([N+](=O)[O-])n1)NCCc1ccccc1,9.14
14,COc1ccc(/C=N/Nc2nc(-c3cccnc3)nc3ccccc23)c(OC)c1,10.2
15,O=C(OCc1nc2scc(-c3ccccc3)c2c(=O)[nH]1)c1ccco1,-2.93
16,CCCCCCOc1ccc(N2C(=O)CC(NCCc3ccc(S(N)(=O)=O)cc3)C2=O)cc1 (stereo not drawn),16
17,COc1ccc(NC(=O)CN(C)C(=O)CN2C(=O)NC3(CCCC3)C2=O)cc1,4.4
18,CCNS(=O)(=O)c1ccc(NC(=O)Nc2ccccc2OC)cc1,8.91
19,CCOC(=O)c1[nH]cnc1C(=O)Nc1ccccc1OC,2.47
20,COCCNS(=O)(=O)c1cc(C(=O)O)ccc1OC,12.7
21,C=C1CC[C@@]2(O)[C@H]3Cc4ccc(O)c5c4[C@@]2(CCN3CC2CC2)[C@H]1O5,3.67
